Experimental data taken from PubChem BioAssay AID588342 (National Center for Advancing Translational Sciences (NCATS), 2011).
In all, about 360,000 compounds went through this assay and about 25,000 (6.9%) were called active. The shares of active, inactive and inconclusive entries below differ from those in the screen. Calls follow the shape of the dose curve; as a rule, active = well fitted inhibition curve with a large enough effect; inconclusive = small, poorly fitted or top-dose-only effect; inactive = flat fitted curve, though single readings scatter. A potency beside an inconclusive call is a rough fit, not a confirmed value.

target: Luciferin 4-monooxygenase (Photinus pyralis) (UniProt P08659); assay: qHTS profiling assay for firefly luciferase inhibitor/activator using purifed enzyme and Km concentrations of substrates (counterscreen for miR-21 project); conditions: purified FLuc, luminescence inhibition; series mostly up to 57.5 µM; activity change, negative = inhibition: at the top concentration; also: nearly all actives have a fitted effect of over 55% in size;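 as to activity change, negative = inhibition: plate controls were vehicle for no effect and reference inhibitor for full effect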
Summary of the method: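 Purified P. pyralis luciferase, 10 nM final, with Km-level 10 uM D-luciferin and 10 uM ATP in 50 mM Tris acetate pH 7.5, 10 mM Mg acetate, 0.01% Tween-20, 0.05% BSA; 6-point qHTS titration about 60 µM downward; luminescence read.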
Potency is read from the fitted curve at half-maximal effect; tags tell the direction and shape of the fitted curve.

Sequence of UniProt P08659 (P08659 whole entry, looked up): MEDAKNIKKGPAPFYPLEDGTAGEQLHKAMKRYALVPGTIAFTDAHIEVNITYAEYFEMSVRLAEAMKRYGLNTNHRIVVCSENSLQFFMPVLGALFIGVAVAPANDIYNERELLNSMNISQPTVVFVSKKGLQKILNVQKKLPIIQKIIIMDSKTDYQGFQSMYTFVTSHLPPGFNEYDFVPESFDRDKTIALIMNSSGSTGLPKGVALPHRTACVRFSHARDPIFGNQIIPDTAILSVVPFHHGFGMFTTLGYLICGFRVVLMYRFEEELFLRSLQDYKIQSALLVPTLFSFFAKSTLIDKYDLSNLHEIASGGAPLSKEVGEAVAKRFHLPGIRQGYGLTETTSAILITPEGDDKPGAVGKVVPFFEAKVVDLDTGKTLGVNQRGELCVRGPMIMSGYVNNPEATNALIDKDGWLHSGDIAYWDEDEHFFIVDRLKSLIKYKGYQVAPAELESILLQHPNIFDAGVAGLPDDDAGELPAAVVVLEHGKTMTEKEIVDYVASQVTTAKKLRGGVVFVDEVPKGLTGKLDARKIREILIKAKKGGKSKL

For `Cc1ccc(-c2nnc(Nc3ccc(O)cc3)c3ccccc23)cc1S(=O)(=O)NC(C)(C)CO`, which Potency is on record?
The Potency was active: 19 µM.

How did the Potency turn out when `O=C(Nc1ccc(NC(=O)c2cccs2)cn1)c1ccco1` was run?
The Potency was inconclusive: 1.9 µM [inhibitor, full curve, poor fit].

With `C/C(=N\OC(=O)NC1CCCCC1)c1sc(-c2ccccc2)nc1C` as the molecule, how does the Potency read?
Its Potency is inconclusive: 37.9 µM [inhibitor, partial curve, poor fit].

Which Potency does the source give for `Cc1ccc(O)c(CNc2nc3ccccc3n2C)c1` here?
Its Potency is inconclusive: 19 µM [inhibitor, partial curve].

For `O=C(O)c1ccc(N/N=C/c2ccc(C(F)(F)F)cc2)cc1`, which Potency is on record?
Its Potency is active: 0.213 µM.

Which “activity change, negative = inhibition” value does the source give for `CCc1cccc(NC(=O)CN(C)S(=O)(=O)c2ccc3c(c2)n(C)c(=O)c(=O)n3C)c1` here?
Its value is inactive: 3.36%.

For `O=C(CCc1ccccc1)Nc1cccc([N+](=O)[O-])c1`, which “activity change, negative = inhibition” value is on record?
Its value is inactive: -14.1%.

`CCOc1ccccc1NC(=O)c1ccccc1-c1nc(-c2ccccc2OC)no1` was tested. Which Potency did it give?
The Potency was active: 10.7 µM.

How did the “activity change, negative = inhibition” value turn out when `Cc1ccc(CN2C(=O)CSC2c2ccccc2F)cc1` (stereo not given) was run?
Its value is inactive: -1.24%.

How did the Potency turn out when `COC(=O)c1cc(C)nc(Sc2ccccc2N)n1` was run?
The Potency was active: 12 µM.

For `NC(=O)c1c(NC(=O)CSc2nnc(-c3ccco3)n2N)sc2c1CCCC2`, which Potency is on record?
Its Potency is inconclusive: 23.9 µM [inhibitor, partial curve, poor fit].

Which “activity change, negative = inhibition” value does the source give for `Cc1cc(C)n2nc(SCC(=O)NC3CCCC(C)C3C)nc2n1` (stereo not given) here?
Its value is inactive: -2.81%.

With `COc1ccc(-n2c(SCC(=O)Nc3ccc4c(c3)OCO4)nc3c([nH]c4ccccc43)c2=O)cc1` as the molecule, how does the “activity change, negative = inhibition” value read?
Its value is inactive: 3.53%.

`CCOC(=O)c1sc(=NC(=O)c2cccc(OC)c2)n(C)c1C` was tested. Which Potency did it give?
The Potency was inconclusive: 0.849 µM [inhibitor, full curve].

How did the Potency turn out when `CCOC(=O)N1N=C(c2ccc(C)cc2)CC1(O)C(F)(F)F` (stereo not given) was run?
The Potency was active: 5.36 µM.

Which Potency does the source give for `COCC(C)n1c(C)cc(C(=O)CN2c3cccc4cccc(c34)S2(=O)=O)c1C` (stereo not given) here?
Its Potency is inconclusive: 28.2 µM [inhibitor, single point].

With `O=C(NC1CCCCC1)C1CCCN1C(=O)Nc1ccccc1` (stereo not given) as the molecule, how does the “activity change, negative = inhibition” value read?
Its value is inactive: -1.07%.

For `CCC(C)NC(=O)c1ccc(COc2ccccc2Cl)cc1` (stereo not given), which Potency is on record?
Its Potency is inconclusive: 21.3 µM [inhibitor, single point].

For `Cc1cccc(N2CCN(c3ccc(NC(=O)/C=C\C(=O)O)cc3)CC2)c1`, which Potency is on record?
Its Potency is inconclusive: 21.3 µM [inhibitor, partial curve, poor fit].

`Cc1oc(-c2ccccc2Cl)nc1CSCC(=O)NC1CC1` was tested. Which Potency did it give?
The Potency was inconclusive: 37.9 µM [inhibitor, partial curve, poor fit].

For `COc1cccc(-c2noc(C3CCCN(C(=O)c4ccc(F)cc4F)C3)n2)c1` (stereo not given), which “activity change, negative = inhibition” value is on record?
The value was inactive: -4.87%.

Which “activity change, negative = inhibition” value does the source give for `CCOC(=O)c1scc(-c2ccc(C)cc2)c1S(=O)(=O)N1CCN(c2ccccc2)CC1` here?
Its value is inactive: -2.22%.

Which Potency does the source give for `COc1cccc(/C=C2\Sc3ccc(C(=O)NCC4CCCO4)cc3N(C)C2=O)c1` (stereo not given) here?
The Potency was inconclusive: 23.9 µM [inhibitor, partial curve, poor fit].

How did the “activity change, negative = inhibition” value turn out when `COCCNC(=O)c1ccccc1NC(=O)C1COc2ccccc2O1` (stereo not given) was run?
The value was inactive: -1.43%.

Which “activity change, negative = inhibition” value does the source give for `O=C(NCCCN1CCOCC1)c1cc(-c2ccccc2)nc2ccccc12` here?
Its value is inactive: -3.42%.

For `Cc1ccc(NC(=O)c2cccc3ccccc23)cc1`, which Potency is on record?
The Potency was active: 15.1 µM.

Which Potency does the source give for `COc1ccc(Oc2coc3cc(OC(=O)c4cccs4)ccc3c2=O)cc1` here?
Its Potency is inconclusive: 9.53 µM [inhibitor, partial curve, poor fit].

How did the “activity change, negative = inhibition” value turn out when `Cc1[nH]c(=O)[nH]c(=O)c1/C=N/NC(=O)[C@H](C)N` was run?
Its value is inactive: 6.02%.

`COc1ccc(OC)c(NS(=O)(=O)c2cc3c4c(c2)CCN4C(=O)CC3)c1` was tested. Which “activity change, negative = inhibition” value did it give?
The value was inactive: 0.77%.

How did the Potency turn out when `CCCc1cc(=O)[nH]c(SCC(=O)Nc2ccc(Br)cc2Br)n1` was run?
The Potency was inconclusive: 26.9 µM [inhibitor, single point].

Which Potency does the source give for `Cc1ccc(C(=O)OCC(=O)Nc2sc3c(c2C#N)CCCCC3)cc1NC(=O)c1ccco1` here?
The Potency was inconclusive: 26.9 µM [inhibitor, single point].

`Cc1c(C)c2cc(Cl)c(OCC(=O)NCCCn3ccnc3)cc2oc1=O` was tested. Which “activity change, negative = inhibition” value did it give?
Its value is inactive: -0.484%.

Which Potency does the source give for `O=C(O)CCc1ccc(-c2ccccc2)o1` here?
The Potency was inconclusive: 30.1 µM [inhibitor, single point].

How did the Potency turn out when `O=C(COC(=O)c1ccc2c(c1)OCCO2)Nc1cccc(S(=O)(=O)N2CCOCC2)c1` was run?
The Potency was inconclusive: 23.9 µM [inhibitor, partial curve, poor fit].

With `CC1CCc2[nH]c3ccc(C(=O)NCC4CCCO4)cc3c2C1` (stereo not given) as the molecule, how does the Potency read?
Its Potency is active: 9.53 µM.

For `O=C(CSc1nnc(COc2ccc(Br)cc2)o1)NC1CCCCC1`, which “activity change, negative = inhibition” value is on record?
The value was inactive: -3.09%.

`NC(=O)COC(=O)/C=C/c1ccccc1[N+](=O)[O-]` was tested. Which “activity change, negative = inhibition” value did it give?
The value was inactive: -2.25%.

How did the Potency turn out when `Cc1ccc2cccc(NC(=S)NC(=O)c3ccccc3)c2n1` was run?
The Potency was inconclusive: 19 µM [inhibitor, partial curve].

Which Potency does the source give for `COc1ccc(/C=N/NC(=O)CCOc2ccccc2C)cc1OC` here?
Its Potency is inconclusive: 33.8 µM [inhibitor, single point].

For `Cc1ccc(NC(=O)C2CCCN2S(=O)(=O)c2cccc3nsnc23)c(Br)c1` (stereo not given), which “activity change, negative = inhibition” value is on record?
Its value is inactive: -3.28%.

For `O=C(CSc1nnnn1-c1ccc2c(c1)OCCO2)c1cccc2c1OCCO2`, which Potency is on record?
The Potency was inconclusive: 21.3 µM [inhibitor, partial curve].

For `C#CCSc1nnc(-c2ccc(OC)cc2)o1`, which Potency is on record?
Its Potency is active: 7.57 µM.

Which Potency does the source give for `O=C(NCc1ccccc1F)c1cc2ccccn2n1` here?
The Potency was inconclusive: 37.9 µM [inhibitor, partial curve, poor fit].

For `CCOc1ccc(N(CC(=O)Nc2ccc(C)c(C)c2)S(C)(=O)=O)cc1`, which Potency is on record?
The Potency was active: 10.7 µM.

Which Potency does the source give for `Cc1ccnc(NS(=O)(=O)c2ccc(NC(=O)c3cc(-c4ccccc4)nc4ccccc34)cc2)n1` here?
Its Potency is inconclusive: 37.9 µM [inhibitor, single point].

With `COc1ccc(NC(=S)Nc2ccccn2)cc1` as the molecule, how does the Potency read?
Its Potency is active: 13.5 µM.

For `CC(NC(=O)CCNC(=O)N1CCn2c1nc1ccccc12)c1ccccc1` (stereo not given), which “activity change, negative = inhibition” value is on record?
Its value is inactive: -0.625%.

Which Potency does the source give for `Cc1cc(C)cc(N(CCC#N)C(=O)COC(=O)CNC(=O)c2sc3ccccc3c2Cl)c1` here?
Its Potency is inconclusive: 26.9 µM [inhibitor, partial curve, poor fit].

`COc1ccc2c(c1)c(=O)oc1cc(OC(C(=O)O)c3ccccc3)ccc12` (stereo not given) was tested. Which Potency did it give?
Its Potency is inconclusive: 21.3 µM [inhibitor, partial curve, poor fit].

How did the “activity change, negative = inhibition” value turn out when `CCOC(=O)CC1C(=O)NCCN1C(=O)COc1ccc(C(C)(C)C)cc1` (stereo not given) was run?
Its value is inactive: 1.81%.

`COc1ccccc1C(=O)Nn1cnnc1` was tested. Which “activity change, negative = inhibition” value did it give?
Its value is inactive: 6.9%.

For `Cc1sc(N)c(C(=O)c2ccccc2)c1C`, which Potency is on record?
The Potency was inconclusive: 21.3 µM [inhibitor, partial curve, poor fit].

`Nc1nc2ccccc2nc1N1CCCC1` was tested. Which Potency did it give?
Its Potency is inconclusive: 37.9 µM [inhibitor, partial curve, poor fit].

`Cc1ccc(CS(=O)(=O)Cc2ccc(C(=O)NCCc3ccccc3)o2)cc1` was tested. Which “activity change, negative = inhibition” value did it give?
The value was inactive: -0.66%.

`Cc1ccccc1C(=O)Nc1cccc(C(=O)OCc2cc(=O)n3c(C)csc3n2)c1` was tested. Which Potency did it give?
The Potency was inconclusive: 13.5 µM [inhibitor, partial curve].

`COc1ccc(NC(=O)Nc2ccc(CC(=O)O)cc2)cc1` was tested. Which Potency did it give?
The Potency was active: 13.5 µM.

How did the “activity change, negative = inhibition” value turn out when `COc1ccc(NC(=O)COc2ccc3oc(=O)cc(C)c3c2)cc1` was run?
Its value is inactive: -7.35%.

`COc1ccc(NC(=O)c2ncoc2-c2ccco2)cc1Cl` was tested. Which Potency did it give?
Its Potency is inconclusive: 2.39 µM [inhibitor, partial curve, poor fit].

How did the Potency turn out when `COc1cc(/C(O)=C(\C#N)c2nc3ccccc3[nH]2)cc(OC)c1OC` was run?
Its Potency is inconclusive: 37.9 µM [inhibitor, partial curve, poor fit].

For `CN1C(=S)N(c2cccnc2)C(=O)/C1=C\c1ccc(C(C)(C)C)cc1`, which Potency is on record?
The Potency was inconclusive: 23.9 µM [inhibitor, single point].

`COC(=O)c1ccc(NC(=S)Nc2ccccc2)cc1` was tested. Which Potency did it give?
The Potency was inconclusive: 26.9 µM [inhibitor, partial curve, poor fit].

How did the Potency turn out when `CCOc1ccc(CNC(=S)N/N=C/c2ccc(OC)c(OC)c2)cc1` was run?
Its Potency is inconclusive: 23.9 µM [inhibitor, single point].

For `COc1cc(C(=O)Nc2ccc(C(F)(F)F)cc2)ccc1OCC(=O)N1CCOCC1`, which Potency is on record?
The Potency was active: 6.75 µM.

For `O=c1oc(-c2ccccc2NS(=O)(=O)c2ccc(F)cc2)nc2ccccc12`, which “activity change, negative = inhibition” value is on record?
The value was inactive: 0.792%.

Which Potency does the source give for `N#Cc1nc(COc2ccc(-c3ccccc3)cc2)oc1NCc1cccnc1` here?
The Potency was inconclusive: 23.9 µM [inhibitor, partial curve, poor fit].

With `Cc1ccc(OCC(=O)NC(=S)Nc2ccccn2)c(Br)c1` as the molecule, how does the Potency read?
The Potency was active: 0.19 µM.

Which Potency does the source give for `COc1ccc(Cl)cc1NC(=S)N(Cc1ccccc1C)CC1CCC(C(=O)O)CC1` (stereo not given) here?
Its Potency is inconclusive: 23.9 µM [inhibitor, partial curve, poor fit].

Which “activity change, negative = inhibition” value does the source give for `COC(=O)c1ccccc1NC(=O)c1sc2nc(C)cc(C)c2c1NC(=O)c1ccccc1Cl` here?
The value was inactive: 0.541%.

With `COc1ccc(NC(=O)c2cc(C(C)=O)n3ccccc23)cc1Cl` as the molecule, how does the Potency read?
The Potency was inconclusive: 15.1 µM [inhibitor, partial curve].

For `O=c1oc2cc(O[C@@H]3OC[C@@H](O)[C@H](O)[C@H]3O)ccc2c2ccccc12`, which Potency is on record?
Its Potency is inconclusive: 21.3 µM [inhibitor, partial curve, poor fit].

For `Cc1ccc(C)c(OCc2cc(C(=O)N3C[C@@H](C)O[C@@H](C)C3)no2)c1`, which Potency is on record?
Its Potency is active: 6.01 µM.

With `CCOC(=O)C1CCN(c2csc3ccc(C)cc3c2=O)CC1` as the molecule, how does the Potency read?
The Potency was active: 7.57 µM.

For `Fc1ccc(/C=N/Nc2nccnc2Cl)cc1`, which Potency is on record?
Its Potency is inconclusive: 23.9 µM [inhibitor, partial curve].

With `O=C1c2cccc3cccc(c23)C(=O)N1CCN1CCN(CC(O)COc2ccc3ccccc3c2)CC1` (stereo not given) as the molecule, how does the “activity change, negative = inhibition” value read?
Its value is inactive: 1.8%.

`CN(CCC1CCCCO1)C(=O)CCc1nnc(CCc2ccccc2)o1` (stereo not given) was tested. Which Potency did it give?
Its Potency is inconclusive: 26.9 µM [inhibitor, single point].
